PMC9911399, “Two distinct binding modes provide the RNA-binding protein RbFox with extraordinary sequence specificity”
Changes are numbered by the printed parent chain; changes in the protein carry UniProt numbers. The list shows a part of the results.

T1: RBFOX1 RRM RbFoxmut (Fox-RRM*) (Homo sapiens, UniProt Q9NWB1 109-208, R118D;E147R;N151S;E152T)
T1 sequence: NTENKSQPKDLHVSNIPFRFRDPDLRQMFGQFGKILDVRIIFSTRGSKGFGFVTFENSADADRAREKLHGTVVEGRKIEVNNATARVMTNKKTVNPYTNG

B1: UCAUAGU (DNA:RNA)
RNA: GGGAGACCGGAAUUCAGAUUGUCCUCAUAGUUUAAAUCCCGUCGUAGCCACCA
DNA 1: CAATCTGAATTCCGGTCTCCC
DNA 2: TGGTGGCTACGACGGGATT
B2: GCAGCAU (DNA:RNA)
RNA: B1 RNA with U25G, U28G, A29C, G30A
DNA 1: CAATCTGAATTCCGGTCTCCC
DNA 2: TGGTGGCTACGACGGGATT
B3: CGUCACA (DNA:RNA)
RNA: B1 RNA with U25C, C26G, A27U, U28C, G30C, U31A
DNA 1: CAATCTGAATTCCGGTCTCCC
DNA 2: TGGTGGCTACGACGGGATT
B4: CCGUUAC (DNA:RNA)
RNA: B1 RNA with U25C, A27G, A29U, G30A, U31C
DNA 1: CAATCTGAATTCCGGTCTCCC
DNA 2: TGGTGGCTACGACGGGATT
B5: CACCUGC (DNA:RNA)
RNA: B1 RNA with U25C, C26A, A27C, U28C, A29U, U31C
DNA 1: CAATCTGAATTCCGGTCTCCC
DNA 2: TGGTGGCTACGACGGGATT
B6: UUCCUGC (DNA:RNA)
RNA: B1 RNA with C26U, A27C, U28C, A29U, U31C
DNA 1: CAATCTGAATTCCGGTCTCCC
DNA 2: TGGTGGCTACGACGGGATT
B7: AAAGUAU (DNA:RNA)
RNA: B1 RNA with U25A, C26A, U28G, A29U, G30A
DNA 1: CAATCTGAATTCCGGTCTCCC
DNA 2: TGGTGGCTACGACGGGATT
B8: UAGACUC (DNA:RNA)
RNA: B1 RNA with C26A, A27G, U28A, A29C, G30U, U31C
DNA 1: CAATCTGAATTCCGGTCTCCC
DNA 2: TGGTGGCTACGACGGGATT
B9: CUAGCCA (DNA:RNA)
RNA: B1 RNA with U25C, C26U, U28G, A29C, G30C, U31A
DNA 1: CAATCTGAATTCCGGTCTCCC
DNA 2: TGGTGGCTACGACGGGATT
B10: GAAGUAU (DNA:RNA)
RNA: B1 RNA with U25G, C26A, U28G, A29U, G30A
DNA 1: CAATCTGAATTCCGGTCTCCC
DNA 2: TGGTGGCTACGACGGGATT
B11: CCUGUAC (DNA:RNA)
RNA: B1 RNA with U25C, A27U, U28G, A29U, G30A, U31C
DNA 1: CAATCTGAATTCCGGTCTCCC
DNA 2: TGGTGGCTACGACGGGATT
B12: GACCGCA (DNA:RNA)
RNA: GGGAGACCGGAAUUCAGAUUGUCCGACCGCAUUAAAUCCCGUCGUAGCCACCA
DNA 1: CAATCTGAATTCCGGTCTCCC
DNA 2: TGGTGGCTACGACGGGATT
B13: AUUUGCU (DNA:RNA)
RNA: B12 RNA with G25A, A26U, C27U, C28U, A31U
DNA 1: CAATCTGAATTCCGGTCTCCC
DNA 2: TGGTGGCTACGACGGGATT
B14: GCAGUGC (DNA:RNA)
RNA: B1 RNA with U25G, U28G, A29U, U31C
DNA 1: CAATCTGAATTCCGGTCTCCC
DNA 2: TGGTGGCTACGACGGGATT
B15: UUGAGGG (DNA:RNA)
RNA: B1 RNA with C26U, A27G, U28A, A29G, U31G
DNA 1: CAATCTGAATTCCGGTCTCCC
DNA 2: TGGTGGCTACGACGGGATT
B16: UGUCACC (DNA:RNA)
RNA: B12 RNA with G25U, A26G, C27U, G29A, A31C
DNA 1: CAATCTGAATTCCGGTCTCCC
DNA 2: TGGTGGCTACGACGGGATT
B17: AAUGGGC (DNA:RNA)
RNA: B12 RNA with G25A, C27U, C28G, C30G, A31C
DNA 1: CAATCTGAATTCCGGTCTCCC
DNA 2: TGGTGGCTACGACGGGATT
B18: UUAUAUU (DNA:RNA)
RNA: B1 RNA with C26U, G30U
DNA 1: CAATCTGAATTCCGGTCTCCC
DNA 2: TGGTGGCTACGACGGGATT
B19: CUAGACG (DNA:RNA)
RNA: B1 RNA with U25C, C26U, U28G, G30C, U31G
DNA 1: CAATCTGAATTCCGGTCTCCC
DNA 2: TGGTGGCTACGACGGGATT
B20: CGAUCGU (DNA:RNA)
RNA: B1 RNA with U25C, C26G, A29C
DNA 1: CAATCTGAATTCCGGTCTCCC
DNA 2: TGGTGGCTACGACGGGATT
B21: UGGUAGC (DNA:RNA)
RNA: B1 RNA with C26G, A27G, U31C
DNA 1: CAATCTGAATTCCGGTCTCCC
DNA 2: TGGTGGCTACGACGGGATT
B22: AGCGGAA (DNA:RNA)
RNA: B12 RNA with G25A, A26G, C28G, C30A
DNA 1: CAATCTGAATTCCGGTCTCCC
DNA 2: TGGTGGCTACGACGGGATT
B23: GAGCCUG (DNA:RNA)
RNA: B12 RNA with C27G, G29C, C30U, A31G
DNA 1: CAATCTGAATTCCGGTCTCCC
DNA 2: TGGTGGCTACGACGGGATT
B24: CCGUCAG (DNA:RNA)
RNA: B1 RNA with U25C, A27G, A29C, G30A, U31G
DNA 1: CAATCTGAATTCCGGTCTCCC
DNA 2: TGGTGGCTACGACGGGATT
B25: AAAUGUA (DNA:RNA)
RNA: B12 RNA with G25A, C27A, C28U, C30U
DNA 1: CAATCTGAATTCCGGTCTCCC
DNA 2: TGGTGGCTACGACGGGATT
B26: CCCUCUG (DNA:RNA)
RNA: B1 RNA with U25C, A27C, A29C, G30U, U31G
DNA 1: CAATCTGAATTCCGGTCTCCC
DNA 2: TGGTGGCTACGACGGGATT
B27: CUCUCCG (DNA:RNA)
RNA: B12 RNA with G25C, A26U, C28U, G29C, A31G
DNA 1: CAATCTGAATTCCGGTCTCCC
DNA 2: TGGTGGCTACGACGGGATT
B28: AAACACA (DNA:RNA)
RNA: B12 RNA with G25A, C27A, G29A
DNA 1: CAATCTGAATTCCGGTCTCCC
DNA 2: TGGTGGCTACGACGGGATT
B29: CCUGGGA (DNA:RNA)
RNA: B12 RNA with G25C, A26C, C27U, C28G, C30G
DNA 1: CAATCTGAATTCCGGTCTCCC
DNA 2: TGGTGGCTACGACGGGATT
B30: AUAUAUG (DNA:RNA)
RNA: B1 RNA with U25A, C26U, G30U, U31G
DNA 1: CAATCTGAATTCCGGTCTCCC
DNA 2: TGGTGGCTACGACGGGATT
B31: CGAUACC (DNA:RNA)
RNA: B1 RNA with U25C, C26G, G30C, U31C
DNA 1: CAATCTGAATTCCGGTCTCCC
DNA 2: TGGTGGCTACGACGGGATT

biological target: T1, RBFOX1 RRM RbFoxmut (Fox-RRM*); assay: EMSA; HiTS-Eq, 1 nM pool, 10 min; buffer printed only for the single-RNA assays: 10 mM Tris pH 7.5, 150 mM NaCl, 3.4 mM EDTA, 0.001% NP-40, 30 C; settings: tags: His6 N-terminal (pET28a); label: 5' 32P
Outline: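 These values rest on relative association constants, computed from read-count changes of each RNA species versus the control reaction and normalised to the cognate motif. Reads came from free RNA recovered by 8% native PAGE after purified RbFox RRM (wild type or mutant) at increasing concentrations was equilibrated for 10 min in 50 µL with 1 nM of a 5′-radiolabelled pool with 7 randomized nucleotides and DNA-annealed flanks.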

Binder | binding signal
B1 | 0.108 KA relative to UGCAUGU
B2 | 0.124 KA relative to UGCAUGU
B3 | 0.0909 KA relative to UGCAUGU
B4 | 0.0966 KA relative to UGCAUGU
B5 | 0.123 KA relative to UGCAUGU
B6 | 0.104 KA relative to UGCAUGU
B7 | 0.154 KA relative to UGCAUGU
B8 | 0.0412 KA relative to UGCAUGU
B9 | 0.091 KA relative to UGCAUGU
B10 | 0.106 KA relative to UGCAUGU
B11 | 0.123 KA relative to UGCAUGU
B12 | 0.138 KA relative to UGCAUGU
B13 | 0.126 KA relative to UGCAUGU
B14 | 0.0818 KA relative to UGCAUGU
B15 | 0.106 KA relative to UGCAUGU
B16 | 0.0681 KA relative to UGCAUGU

Binder | binding signal
B17 | 0.0842 KA relative to UGCAUGU
B18 | 0.0963 KA relative to UGCAUGU
B19 | 0.0782 KA relative to UGCAUGU
B20 | 0.118 KA relative to UGCAUGU
B21 | 0.102 KA relative to UGCAUGU
B22 | 0.124 KA relative to UGCAUGU
B23 | 0.138 KA relative to UGCAUGU
B24 | 0.0849 KA relative to UGCAUGU
B25 | 0.166 KA relative to UGCAUGU
B26 | 0.101 KA relative to UGCAUGU
B27 | 0.0825 KA relative to UGCAUGU
B28 | 0.106 KA relative to UGCAUGU
B29 | 0.0578 KA relative to UGCAUGU
B30 | 0.146 KA relative to UGCAUGU
B31 | 0.0925 KA relative to UGCAUGU
